Hit rate of the full screen: of about 280,000 compounds, about 820 (0.29%) were called active. This list was built around the results that the source calls inconclusive (neither active nor inactive); the mix of calls is not that of the screen. The call rests on the fitted dose curve; in most records, active means well fitted curve in either direction with a large enough effect; inconclusive means small, poorly fitted or top-dose-only effect; inactive means flat fitted curve, though single readings scatter. Potencies of inconclusive entries are left out as doubtful fits. More than one record can exist for a structure, and the calls need not agree.
Assay: Total Fluorescence Counterscreen for Inhibitors of the Interaction of Thyroid Hormone Receptor and Steroid Receptor Coregulator 2
Details: TRb/SRC2 Texas Red total fluorescence interference; series mostly up to 106 µM
In short: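 Flags fluorescent or light-absorbing compounds by total fluorescence, S + 2P, at 555 nm excitation and 632 nm emission. Mixture: 20 nM Texas Red SRC2 peptide, 0.6 uM human TRb LBD, 1 uM T3, 5% DMSO; compound exposure 5 h at ambient temperature.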
In the case of `COc1ccc(-c2coc3c(O)c(OC)ccc3c2=O)cc1`, the Potency is reported as inconclusive [quencher, full curve].
With `CCOc1ccc(NC(=O)c2cc(CN3CCCC3)on2)cc1` the Potency was inconclusive [falling, full curve, poor fit].
For `O=C(Cn1nc(C(F)(F)F)c2c1CCCC2)Nc1ccc(F)c(Cl)c1`, the Potency was inconclusive [falling, full curve, poor fit].
For `CCOC(=O)c1cc(-c2ccc(C)cc2)n(CC(=O)Nc2ccc(OC)c(Cl)c2)c1C`, the Potency was inconclusive [quencher, full curve].
In the case of `Cc1ccc2nc(-c3c[nH]c4ccccc34)c(Nc3ccccc3)n2c1`, the Potency is reported as inconclusive [falling, full curve, poor fit].
For `CN(C)C1CCc2[nH]c3ccc(NC(=O)c4ccc(F)cc4)cc3c2C1` (stereo unspecified), the Potency was “inactive”.
For `CCc1cccc(C)c1NC(=O)COCc1cc(-c2ccc3c(c2)OCO3)on1`, the Potency was inconclusive [quencher, full curve].
With `Cc1ccccc1CNCCCSc1nnnn1-c1ccccc1` the Potency was “inactive”.
For `COc1ccc(N/C=C2\CCc3ccccc3C2=O)cc1`, the Potency was “inactive”.
With `CC(=O)c1cc(-c2ccccc2)n(CC(=O)NCc2ccccc2C)c1C` the Potency was inconclusive [quencher, full curve].
With `COc1ccc(CCNC(=O)C(=O)NCC(c2cccnc2)N2CCN(c3ccccc3)CC2)cc1` (stereo unspecified) the Potency was inconclusive [falling, partial curve, poor fit].
With `O=C(NCc1ccco1)c1ccc2c(c1)N(Cc1ccccc1F)C(=O)c1ccccc1S2(=O)=O` the Potency was inconclusive [falling, partial curve, poor fit].
With `CCCCNC(=O)c1ccc2c(c1)NC(=O)C(CS(=O)(=O)Cc1ccc(F)cc1Cl)N2` (stereo unspecified) the Potency was inconclusive [falling, full curve, poor fit].
In the case of `CCOc1ccccc1Nc1ncnc2c1c(-c1ccccc1)cn2-c1ccc(OC)cc1`, the Potency is reported as “inactive”.
For `CC(=O)N1c2ccc(S(=O)(=O)NCC3CCC(C(=O)Nc4ccc(F)cc4)CC3)cc2CC1C` (stereo unspecified), the Potency was inconclusive [falling, full curve, poor fit].
In the case of `COc1cccc(NC(=O)C2CCN(c3cc(C)nc4c(-c5ccc(Cl)cc5)c(C)nn34)CC2)c1`, the Potency is reported as active: 89.1 µM [quencher].
For `COc1ccc(CNC(=O)c2ccc3c(c2)CCN3S(=O)(=O)c2ccc(Cl)cc2)cc1`, the Potency was “inactive”.
With `COCCN=c1scc(-c2ccccc2)n1/N=C/c1c[nH]c2ccccc12` the Potency was inconclusive [falling, full curve, poor fit].
With `COc1cc(Cl)c(C)cc1NS(=O)(=O)c1c(C)nc2sccn2c1=O` the Potency was inconclusive [rising, single point].
With `Cc1cccc(C(=O)Nc2sc(C)c(-c3ccccc3)c2C#N)c1` the Potency was “inactive”.
For `CC(C)CC(C(=O)NCCc1ccccc1)N1Cc2ccccc2C1=O` (stereo unspecified), the Potency was inconclusive [quencher, full curve].
With `O=c1cc2oc3cc(O)c(O)cc3c(-c3ccccc3O)c-2cc1O` the Potency was active: 39.8 µM [fluorescent].
In the case of `COc1ccc(-n2ncc(C(=O)Nc3ccc4c(c3)OCCO4)c2C2CCN(C(=O)OC(C)(C)C)CC2)cc1`, the Potency is reported as inconclusive [falling, full curve, poor fit].
For `NC(=O)COC(=O)c1cc(-c2ccco2)nc2ccccc12`, the Potency was “inactive”.
With `O=C(CS(=O)(=O)c1cn(Cc2ccc(F)cc2)c2ccccc12)N1CCCCC1` the Potency was “inactive”.
For `Nc1c(C(=O)Nc2ccccc2F)sc2nc(-c3cccnc3)ccc12`, the Potency was “inactive”.
For `CCOC(=O)CC(NC(=O)Cn1nnc(-c2ccccc2F)n1)c1ccccc1Cl` (stereo unspecified), the Potency was inconclusive [quencher, full curve].
In the case of `Cc1ccc(N2CCN(C(=O)c3cn(C)c4ccc(S(=O)(=O)N(C)C)cc4c3=O)CC2C)cc1` (stereo unspecified), the Potency is reported as “inactive”.
In the case of `C/C(=C\c1ccco1)C1Nc2cccc3cccc(c23)N1`, the Potency is reported as inconclusive [quencher, partial curve].
For `Oc1ccc(NCc2ccccc2OCc2ccc(Cl)cc2)cc1`, the Potency was inconclusive [falling, partial curve, poor fit].
With `CCOC(=O)NN1C(=O)c2ccccc2NC1c1ccc(OC)cc1` (stereo unspecified) the Potency was inconclusive [falling, full curve, poor fit].
With `COc1cc(O)c(C(=O)c2ccccc2)cc1S(=O)(=O)O` the Potency was “inactive”.
With `Cn1nnnc1SCCCNCc1cccc(OCc2ccc(F)cc2)c1` the Potency was active: 0.891 µM [quencher].
In the case of `COC(=O)Cc1cc(=O)n2[nH]c(C)c(-c3ccccc3)c2n1`, the Potency is reported as inconclusive [fluorescent, partial curve].
With `CC1=NN(c2ccc(C(=O)O)c(N)c2)C(=O)C1` the Potency was inconclusive [quencher, full curve].
In the case of `COC1=C(Nc2ccc(OC)cc2)C(=O)c2ccccc2C1=O`, the Potency is reported as “inactive”.
With `CCc1ccc(-n2c(=O)c3c4c(sc3n(CC(=O)c3ccc(Br)cc3)c2=O)CCC4)cc1` the Potency was inconclusive [falling, full curve, poor fit].
For `Cc1ccc(CNC(=O)c2c(C)oc3ncnc(N4CCOCC4)c23)cc1`, the Potency was inconclusive [falling, full curve, poor fit].
With `Cc1cc(C)cc(NC(=O)CSc2nc3nccnc3c(=O)n2CCc2c[nH]c3ccccc23)c1` the Potency was inconclusive [falling, partial curve, poor fit].
For `CCCNC(=O)C1CCC(Cn2c(=O)c3sccc3n(CC(=O)NCc3cccc(OC)c3OC)c2=O)CC1` (stereo unspecified), the Potency was inconclusive [falling, full curve, poor fit].
With `Cc1cc(=O)oc2cc(O)c(O)cc12` the Potency was inconclusive [falling, full curve, poor fit].
For `C=Cc1c(C)c2cc3nc(cc4[nH]c(cc5nc(cc1[nH]2)C(C)=C5CCC(=O)O)c(CCC(=O)OC)c4C)[C@@]1(C)C3=CC=C(C(=O)OC)[C@H]1C(=O)OC` (tested in a mixture with another compound), the Potency was “inactive”.
With `COc1cccc(C(=O)Nc2nc(-c3ccc(Br)cc3)ns2)c1` the Potency was inconclusive [quencher, partial curve].
With `CC(C)(C)C(=O)Nc1ccccc1C(=O)OCc1cc(=O)n2ccsc2n1` the Potency was “inactive”.
For `O=[N+]([O-])c1cccc(C2=N[C@@H](Cc3ccccc3)CO2)c1`, the Potency was inconclusive [falling, full curve, poor fit].
With `O=C(N/N=C/c1ccc(Sc2ccccn2)o1)c1cc2ccccc2cc1O` the Potency was active: 31.6 µM [quencher].
For `CC(NC(=O)OCc1ccccc1)C(=O)N1CC(O)CC1C(=O)O` (stereo unspecified), the Potency was “inactive”.
For `O=C(COC(=O)COc1ccc(Cl)cc1Cl)Nc1cccnc1Cl`, the Potency was inconclusive [falling, partial curve, poor fit].
In the case of `CCOc1ccccc1CNc1ccc(O)cc1`, the Potency is reported as inconclusive [rising, partial curve, poor fit].
With `CC(SCc1ccccc1)C(=O)N/N=C/c1cccs1` (stereo unspecified) the Potency was inconclusive [falling, full curve, poor fit].
With `CCS(=O)(=O)c1oc(-c2ccc(F)cc2)nc1S(=O)(=O)c1ccccc1` the Potency was “inactive”.
For `O=C(c1cnc2c(c1)COc1ccc(Cl)cc1-2)c1ccccc1O`, the Potency was active: 7.94 µM [quencher].
For `Cc1ccc2nc(-c3ccc(C)o3)c(Nc3ccc4c(c3)OCCO4)n2c1`, the Potency was active: 0.0013 µM [quencher].
For `O=C(N=C1SCC(=O)N1c1ccccc1Cl)c1ccco1`, the Potency was inconclusive [fluorescent, partial curve].
For `O=C(NCCc1ccccc1)c1ccc(Cn2c(SCc3ccccc3F)nc3cccnc32)cc1`, the Potency was inconclusive [quencher, full curve].
In the case of `CCOc1ccc(NC(=O)CSc2nnc(CNC(=O)C34CC5CC(CC(C5)C3)C4)n2CC)cc1`, the Potency is reported as inconclusive [quencher, full curve].
For `Cc1cc2oc(C(=O)Nc3cccc(-c4nc5ccccc5o4)c3)c(C)c2cc1C`, the Potency was inconclusive [rising, single point].
For `Cc1cc(Nc2cccc(C(F)(F)F)c2)nc2ccc(NC(=O)c3cccc(Cl)c3)cc12`, the Potency was “inactive”.
In the case of `O=C(Cc1ccc(-c2ccccc2)cc1)NCCS(=O)(=O)N1CCN(c2ccccc2)CC1`, the Potency is reported as inconclusive [quencher, full curve].
With `CC(=O)c1ccc(N2CCN(C(=O)c3nn(Cc4ccccc4)c(=O)c4ccccc34)CC2)cc1` the Potency was “inactive”.
With `CCOc1ccc(NC(=O)/C(C#N)=C\c2ccc(-c3ccc(Cl)cc3)o2)cc1` the Potency was inconclusive [falling, full curve, poor fit].
With `CCN(CC)CCCNC(=O)Cc1csc2nc(-c3ccc(Cl)cc3)cn12` the Potency was inconclusive [falling, full curve, poor fit].
With `O=C(Nc1cccc(F)c1)c1ccc(Br)o1` the Potency was inconclusive [falling, partial curve, poor fit].
In the case of `CCOC(=O)CSc1nc2ccc(NC(=O)c3cccc(F)c3)cc2s1`, the Potency is reported as inconclusive [falling, full curve, poor fit].
In the case of `Cc1cc2cc(CNS(=O)(=O)c3ccc4ccccc4c3)ccc2n1C`, the Potency is reported as active: 44.7 µM [fluorescent].
In the case of `COC(=O)c1c(-c2cccs2)csc1NC(=O)COc1ccc(C)cc1`, the Potency is reported as inconclusive [falling, full curve, poor fit].

Reference: PubChem BioAssay AID1479 (National Center for Advancing Translational Sciences (NCATS), 2009)
Potency means the concentration at half of the fitted maximal effect; tags describe the fitted curve by direction and shape or compound fluorescence and quenching.
